According to patent US20220402989A1 (Regeneron, published 2022):

T1: human IL2 receptor beta expressed with a C-terminal myc-myc-hexahistidine tag (human, UniProt P14784 27-240)
T1 construct: Recombinant monomeric protein in solution; also called hIL2Rβ.mmH; hIL2RR.mmH; not shown: C-terminal myc-myc-hexahistidine tag
T1 sequence (looked up): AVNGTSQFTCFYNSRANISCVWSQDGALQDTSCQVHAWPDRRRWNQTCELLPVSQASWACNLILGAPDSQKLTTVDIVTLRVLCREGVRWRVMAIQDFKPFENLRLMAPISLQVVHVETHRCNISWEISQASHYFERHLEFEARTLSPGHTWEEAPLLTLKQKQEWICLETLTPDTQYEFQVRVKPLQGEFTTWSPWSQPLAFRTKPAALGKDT

T2: human IL2 receptor gamma expressed with a C-terminal myc-myc-hexahistidine tag (human, UniProt P31785 23-262)
T2 construct: Recombinant monomeric protein in solution; also called hIL2Rγ.mmH; REGN1183; not shown: C-terminal myc-myc-hexahistidine tag
T2 sequence (looked up): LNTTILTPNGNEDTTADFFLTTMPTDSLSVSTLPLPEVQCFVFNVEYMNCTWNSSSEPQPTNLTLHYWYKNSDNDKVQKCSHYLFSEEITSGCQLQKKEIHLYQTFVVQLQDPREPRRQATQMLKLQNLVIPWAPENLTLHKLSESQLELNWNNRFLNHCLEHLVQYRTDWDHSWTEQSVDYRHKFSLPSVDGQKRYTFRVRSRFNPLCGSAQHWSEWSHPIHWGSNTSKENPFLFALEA

T3: human IL2Rα expressed with a C-terminal hexahistidine tag (human, UniProt P01589 22-213)
T3 construct: Recombinant monomeric protein in solution; also called hIL2Rα.6H; R&D Catalog #10305-RL-050; not shown: C-terminal hexahistidine tag
T3 sequence (looked up): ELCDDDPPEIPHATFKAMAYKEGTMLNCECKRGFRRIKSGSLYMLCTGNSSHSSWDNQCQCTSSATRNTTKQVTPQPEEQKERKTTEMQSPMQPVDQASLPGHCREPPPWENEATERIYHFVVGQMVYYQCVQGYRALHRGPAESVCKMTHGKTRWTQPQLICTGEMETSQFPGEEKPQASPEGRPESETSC

B1: REGN10486 (other)
heavy: EVQLLESGGVLVQPGGSLRLSCAASGFTFSNFGMTWVRQAPGKGLEWVSGISGGGRDTYFADSVKGRFTISRDNSKNTLYLQMNSLKGEDTAVYYCVKWGNIYFDYWGQGTLVTVSSASTKGPSVFPLAPCSRSTSESTAALGCLVKDYFPEPVTVSWNSGALTSGVHTFPAVLQSSGLYSLSSVVTVPSSSLGTKTYTCNVDHKPSNTKVDKRVESKYGPPCPPCPAPPVAGPSVFLFPPKPKDTLMISRTPEVTCVVVDVSQEDPEVQFNWYVDGVEVHNAKTKPREEQFNSTYRVVSVLTVLHQDWLNGKEYKCKVSNKGLPSSIEKTISKAKGQPREPQVYTLPPSQEEMTKNQVSLTCLVKGFYPSDIAVEWESNGQPENNYKTTPPVLDSDGSFFLYSRLTVDKSRWQEGNVFSCSVMHEALHNHYTQKSLSLSLGKGGGGSGGGGSGGGGSELCDDDPPEIPHATFKAMAYKEGTMLNCECKRGFRRIKSGSLYMLCTGNSSHSSWDNQCQCTSSATRNTTKQVTPQPEEQKERKTTEMQSPMQPVDQASLPGHCREPPPWENEATERIYHFVVGQMVYYQCVQGYRALHRGPAESVCKMTHGKTRWTQPQLICTGGGGGSGGGGSGGGGSGGGGSGGGGS[about 150 residues skipped]
light: DIQMTQSPSSLSASVGDSITITCRASLSINTFLNWYQQKPGKAPNLLIYAASSLHGGVPSRFSGSGSGTDFTLTIRTLQPEDFATYYCQQSSNTPFTFGPGTVVDFRRTVAAPSVFIFPPSDEQLKSGTASVVCLLNNFYPREAKVQWKVDNALQSGNSQESVTEQDSKDSTYSLSSTLTLSKADYEKHKVYACEVTHQGLSSPVTKSFNRGEC
notes: also called anti-PD1-IL2Rα-IL2; anti-hPD1-IL2Rα-IL2
B2: REGN10597 (other)
heavy: QVQLVQSGAEVKRPGSSVKVSCKVSGVTFRNFAIIWVRQAPGQGLEWMGGIIPFFSAANYAQSFQGRVTITPDESTSTAFMELASLRSEDTAVYYCAREGERGHTYGFDYWGQGTLVTVSSASTKGPSVFPLAPCSRSTSESTAALGCLVKDYFPEPVTVSWNSGALTSGVHTFPAVLQSSGLYSLSSVVTVPSSSLGTKTYTCNVDHKPSNTKVDKRVESKYGPPCPPCPAPPVAGPSVFLFPPKPKDTLMISRTPEVTCVVVDVSQEDPEVQFNWYVDGVEVHNAKTKPREEQFNSTYRVVSVLTVLHQDWLNGKEYKCKVSNKGLPSSIEKTISKAKGQPREPQVYTLPPSQEEMTKNQVSLTCLVKGFYPSDIAVEWESNGQPENNYKTTPPVLDSDGSFFLYSRLTVDKSRWQEGNVFSCSVMHEALHNHYTQKSLSLSLGKGGGGSGGGGSGGGGSELCDDDPPEIPHATFKAMAYKEGTMLNCECKRGFRRIKSGSLYMLCTGNSSHSSWDNQCQCTSSATRNTTKQVTPQPEEQKERKTTEMQSPMQPVDQASLPGHCREPPPWENEATERIYHFVVGQMVYYQCVQGYRALHRGPAESVCKMTHGKTRWTQPQLICTGGGGGSGGGGSGGGGSGGGGSGGGGS[about 150 residues skipped]
light: [about 100 residues skipped][about 120 residues skipped]
notes: also called anti-PD1-IL2Rα-IL2; aPD1(9048)-IL2Ra-IL2
B3: REGN10595 (other)
heavy: QVQLVQSGTEVRKPGSSVKVSCKTSGVTFNNYAITWVRQAPGQGLEWMGGIIPVFSPPNYAQKFQGRVTITADESTNTAYMELNSLRSDDTAIYFCAREGERGYTYGYDYWGQGTLVTVSSASTKGPSVFPLAPCSRSTSESTAALGCLVKDYFPEPVTVSWNSGALTSGVHTFPAVLQSSGLYSLSSVVTVPSSSLGTKTYTCNVDHKPSNTKVDKRVESKYGPPCPPCPAPPVAGPSVFLFPPKPKDTLMISRTPEVTCVVVDVSQEDPEVQFNWYVDGVEVHNAKTKPREEQFNSTYRVVSVLTVLHQDWLNGKEYKCKVSNKGLPSSIEKTISKAKGQPREPQVYTLPPSQEEMTKNQVSLTCLVKGFYPSDIAVEWESNGQPENNYKTTPPVLDSDGSFFLYSRLTVDKSRWQEGNVFSCSVMHEALHNHYTQKSLSLSLGKGGGGSGGGGSGGGGSELCDDDPPEIPHATFKAMAYKEGTMLNCECKRGFRRIKSGSLYMLCTGNSSHSSWDNQCQCTSSATRNTTKQVTPQPEEQKERKTTEMQSPMQPVDQASLPGHCREPPPWENEATERIYHFVVGQMVYYQCVQGYRALHRGPAESVCKMTHGKTRWTQPQLICTGGGGGSGGGGSGGGGSGGGGSGGGGS[about 150 residues skipped]
light: [about 100 residues skipped][about 120 residues skipped]
notes: as for B1

How the values were obtained:
[1] = target: T1, human IL2 receptor beta expressed with …; assay: SPR (Biacore S-200), construct captured via anti-human Fab, 1 µM hIL2Rβ.mmH injected, 25 C
[2] = target: T2, human IL2 receptor gamma expressed with …; assay: SPR (Biacore S-200), sequential: 1 µM hIL2Rβ.mmH, then mixture of hIL2Rβ.mmH and 1 µM hIL2Rγ.mmH, 25 C
[3] = target: T3, human IL2Rα expressed with a C-terminal …; assay: SPR (Biacore S-200), construct captured via anti-human Fab, 1 µM hIL2Rα.6H injected, 25 C
[4] = target: T2, human IL2 receptor gamma expressed with …; assay: SPR (Biacore S-200), sequential: 1 µM hIL2Rβ.mmH, then mixture of hIL2Rβ.mmH and 1 µM hIL2Rγ.mmH, 25 C; normalized to REGN1945 and REGN8512
[5] = target: T1, human IL2 receptor beta expressed with …; assay: SPR (Biacore S-200), construct captured via anti-human Fab, 1 µM hIL2Rβ.mmH injected, 25 C; normalized to REGN1945 and REGN8512
[6] = target: T4, human PD-1 expressed with a C-terminal myc-myc-hexahistidine tag (human); assay: SPR (Biacore), antibody captured via anti-human Fc, hPD-1.mmH in solution, 25 C
T4 construct: also called hPD-1.mmH; hPD-1.mmh
Description: The CM5 Biacore sensor surface was derivatized by amine coupling with a monoclonal mouse anti-human Fc antibody (GE, #BR-1008-39). All Biacore binding studies were performed in a buffer composed of 0.01M HEPES pH 7.4, 0.15M NaCl, 3 mM EDTA, 0.05% v/v Surfactant P20 (HBS-EP running buffer). […] Antibody-reagent association was monitored for 4 or 5 minutes, while dissociation in HBS-EP running buffer was monitored for 10 minutes. […] All binding kinetics experiments were performed at 25° C.
Kinetic association (kₐ) and dissociation (kd) rate constants were determined by fitting the real-time sensorgrams to a 1:1 binding model using Scrubber 2.0c curve fitting software. Binding dissociation equilibrium constants (KD) and dissociative half-lives (t½) were calculated from the kinetic rate constants as: […]

[7] = target: T5, human PD1 expressed endogenously on YT/STAT5 luc/Cl4 cells (human, UniProt Q15116 25-288); assay: flow cytometry (FACS) titration on YT/STAT5 luc/CL4 cells with endogenous hPD1, APC anti-human Fc-gamma secondary, MFI_APC
T5 construct: whole, on cells; also called hPD1; PD1+ cells
T5 sequence (Q15116 25-288): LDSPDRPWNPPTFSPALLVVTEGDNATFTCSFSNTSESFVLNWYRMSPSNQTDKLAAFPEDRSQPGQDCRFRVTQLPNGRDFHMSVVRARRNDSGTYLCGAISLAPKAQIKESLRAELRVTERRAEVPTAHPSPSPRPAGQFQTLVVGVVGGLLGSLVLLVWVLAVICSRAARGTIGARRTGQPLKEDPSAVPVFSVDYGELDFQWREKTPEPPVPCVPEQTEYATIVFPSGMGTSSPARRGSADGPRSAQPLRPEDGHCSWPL
Description: To compare hPD1 binding of αhPD1-IL2Rα-IL2 proteins to their respective parental anti-hPD1 antibodies, YT/STAT5 luc/Cl4 cells expressing endogenous levels of hPD1 were washed twice with FACS wash (PBS+2% FBS) and resuspended at 1×10\hat{ }6 cells/ml in FACS wash. Cells (100 μl/well) were then plated in 96 well U bottom plates. Cells were spun down (1200 RPM, 5 minutes) and resuspended in 100 μl/well of the various antibody dilutions listed in mAb clone IDs. The antibody titrations were prepared starting at 20 μg/ml with a 6-fold dilution using FACS wash. Cells were incubated with the antibodies for 30 minutes at 4° C. The unbound antibodies were then removed by washing the cells twice using FACS wash. The cells were then resuspended in 100 μl/well of 1:200 dilution of APC-anti-human Fcγ secondary antibody. The cells were incubated for 30 minutes at 4° C. The unbound antibodies were then removed by washing the cells twice using FACS wash. The cells were then resuspended in 160 μl/well of FACS wash and run to test binding using BD FACSCanto™ Flow Cytometer.

[8] = target: T3, human IL2Rα expressed with a C-terminal …; assay: SPR (Biacore S-200), construct captured via anti-human Fab, 1 µM hIL2Rα.6H injected, 25 C; normalized to REGN1945 and REGN8512

| Binder | 1 µM hIL2Rβ.mmH Bind (RU) [1] | 1 µM hIL2Rγ.mmH Bind (RU) [2] | 1 µM hIL2Rα.6H Bind (RU) [3] | % Normalized Activity [4] | % Normalized Activity [5] | 90 nM or 100 nM hPD-1.mmH Bind (RU) [6] | Kd [6] | koff [6] | kon [6] | t1/2 [6] | EC50 [7] | % Normalized Activity [8] |
| --- | --- | --- | --- | --- | --- | --- | --- | --- | --- | --- | --- | --- |
| B1 | 13.3 RU | 0.8 RU | 0.9 RU | 5.5% | 46.4% | 46.9 RU | 2.83 nM | 0.000302 s⁻¹ | 107000 M⁻¹ s⁻¹ | 38.3 min | 1.55 nM | 1.3% |
| B2 | 16.8 RU | 1.4 RU | 0.6 RU | 9.3% | 71.9% | 41.8 RU | 3.92 nM | 0.000582 s⁻¹ | 148000 M⁻¹ s⁻¹ | 19.9 min | 6.31 nM | 1.2% |
| B3 | 15.6 RU | 2.2 RU | 2.1 RU | 12.6% | 61.6% | 44.7 RU | 4.59 nM | 0.000476 s⁻¹ | 104000 M⁻¹ s⁻¹ | 24.3 min | 10.6 nM | 6.6% |
